Results on 55 compounds are retold here after paper PMC4336329 (PLoS ONE, 2015).

Hit rate of the full screen: of about 310,000 compounds, about 14,000 (4.5%) showed an effect of 50% or more. The effect is printed as a negative number. The list shows a part of the results.
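Further: peak tail current of the secondary pulse compared with the same well before compound.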

For the assay, the target named is human ether-à-go-go-related gene (hERG) potassium channel (human, UniProt Q12809). The experiment in a line: primary screen, population patch clamp on CHO cells stably expressing hERG.
Sequence of human ether-à-go-go-related gene (hERG) potassium channel (Q12809 whole entry, looked up): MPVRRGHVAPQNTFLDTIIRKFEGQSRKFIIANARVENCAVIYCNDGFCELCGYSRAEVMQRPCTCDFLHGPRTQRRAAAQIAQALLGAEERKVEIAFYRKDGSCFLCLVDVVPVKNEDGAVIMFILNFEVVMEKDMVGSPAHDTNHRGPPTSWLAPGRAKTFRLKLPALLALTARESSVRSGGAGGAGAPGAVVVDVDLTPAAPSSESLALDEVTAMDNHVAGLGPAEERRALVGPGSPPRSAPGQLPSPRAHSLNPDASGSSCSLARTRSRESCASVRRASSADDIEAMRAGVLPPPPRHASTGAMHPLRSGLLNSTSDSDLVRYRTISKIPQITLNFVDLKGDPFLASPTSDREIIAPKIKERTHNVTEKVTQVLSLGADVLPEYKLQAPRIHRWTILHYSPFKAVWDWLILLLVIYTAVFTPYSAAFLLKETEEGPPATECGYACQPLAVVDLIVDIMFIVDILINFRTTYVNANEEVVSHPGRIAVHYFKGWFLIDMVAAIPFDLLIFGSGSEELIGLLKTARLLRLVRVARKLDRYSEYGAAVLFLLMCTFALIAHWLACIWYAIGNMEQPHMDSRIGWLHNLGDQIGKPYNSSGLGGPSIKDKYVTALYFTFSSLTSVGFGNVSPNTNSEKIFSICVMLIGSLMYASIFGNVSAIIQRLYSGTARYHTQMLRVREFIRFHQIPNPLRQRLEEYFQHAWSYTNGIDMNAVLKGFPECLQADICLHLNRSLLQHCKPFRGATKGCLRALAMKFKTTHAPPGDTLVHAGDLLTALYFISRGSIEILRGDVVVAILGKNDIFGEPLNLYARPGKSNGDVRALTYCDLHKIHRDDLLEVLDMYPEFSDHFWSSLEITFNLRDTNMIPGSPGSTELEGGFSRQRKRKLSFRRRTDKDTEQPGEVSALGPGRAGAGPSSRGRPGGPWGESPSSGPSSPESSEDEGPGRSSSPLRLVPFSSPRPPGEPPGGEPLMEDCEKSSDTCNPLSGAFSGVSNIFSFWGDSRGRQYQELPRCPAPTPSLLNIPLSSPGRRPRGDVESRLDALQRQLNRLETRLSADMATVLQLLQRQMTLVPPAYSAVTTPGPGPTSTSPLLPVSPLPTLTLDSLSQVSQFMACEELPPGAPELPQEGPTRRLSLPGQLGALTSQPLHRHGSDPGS
`C1=C(c2ccccc2)Nc2nnnn2C1c1cccs1` (stereo not shown): the “hERG current change (%, negative = inhibition) at 10uM” value is listed as -8.78%.
The result for `C=CS(=O)(=O)c1ccc(Oc2ccc(S(=O)(=O)C=C)cc2)cc1` reads -64.3%; that for `COc1ccc(OC)c(NC(=O)CNC(=O)c2ccc([N+](=O)[O-])cc2)c1`, -31.4%; that for `COc1cccc(OCC(=O)N(C)Cc2nc(-c3cccc(C)c3)no2)c1`, -20.2%.
With `COc1cc2c(cc1OC)C1=C(C#N)CC/C(=N\S(=O)(=O)c3ccccc3)N1CC2`, the “hERG current change (%, negative = inhibition) at 10uM” value is -33.1%.
Turning to `Cc1ccc(-c2nn(-c3ccccc3)cc2/C=N/n2c(-c3cccs3)n[nH]c2=S)cc1`, the “hERG current change (%, negative = inhibition) at 10uM” value amounted to 9.44%.
Then `CCCCS(=O)(=O)/C=C/[C@H]1[C@H](S(=O)(=O)CCCC)[C@H]2C=C[C@@H]1C2`, with -13.7%.
The result for `CC(Sc1nnc(-c2cccs2)n1-c1ccccc1)C(=O)NCc1ccco1` (stereo not shown) reads -79.4%.
The result for `COc1ccccc1NC(=O)Nc1cnccn1` reads -1.51%; that for `COc1ccc(NC(=O)CN(C)CC(=O)NCC(=O)Nc2ccc(F)cc2)cc1`, -16.6%.
For `Cn1c(=S)[nH]c2c(c1=O)C(C)(C)Cc1ccccc1-2`, the “hERG current change (%, negative = inhibition) at 10uM” value stood at 10.9%.
The result for `CC1CCN(C(=O)c2ccc(S(=O)(=O)N3CCCC3)cc2)CC1` reads -3.13%.
On to `N#Cc1ccccc1S(=O)(=O)N1CCN(CC(O)c2ccccc2)CC1.O=C(O)C(=O)O` (stereo not shown), for which the “hERG current change (%, negative = inhibition) at 10uM” value was 8.97%.
Then `CC(C)Oc1ccc(C(=O)NN2C(=O)NC3(CCCCC3)C2=O)cc1`, with 1.38%; and `O=C(Nc1cccc([N+](=O)[O-])c1)Nn1cnnc1`, with 10.9%; and `COc1ccccc1OCC#CCN1CCCC(C)C1.O=C(O)C(=O)O` (stereo not shown), with 25.9%.
Then `COc1ccc(-c2cc(C(F)F)n3ncc(C(=O)N4CCSCC4)c3n2)cc1`, with -43.3%.
`CCCN1CCN(CCCNC(=O)c2ccccc2NC(=O)C2=C(C)OCCS2)CC1`: the “hERG current change (%, negative = inhibition) at 10uM” value is reported as -13.3%.
Turning to `Oc1ccc(N2CCN(Cc3ccc(OCCCN4CCCCC4)cc3)CC2)cc1`, the “hERG current change (%, negative = inhibition) at 10uM” value is given as 5.11%.
Then `Cc1ccc(Cl)cc1N1CCN(S(=O)(=O)c2ccc(-c3ccc(=O)[nH]n3)o2)CC1`, with 0.351%; and `CCOc1ccccc1OCCOCCN1CCN(Cc2ccccc2)CC1.O=C(O)C(=O)O`, with -48.5%; and `O=C(COc1ccc([N+](=O)[O-])cc1)Nc1nc(-c2ccccn2)cs1`, with -20.4%.
For `Cc1ccc2nc(NC(=O)C3CCN(S(=O)(=O)c4cnc[nH]4)CC3)sc2c1`, the “hERG current change (%, negative = inhibition) at 10uM” value is recorded as 6.57%.
As for `Cc1ccc(Oc2ccc(Oc3ccc(C)cc3)nn2)cc1`, the “hERG current change (%, negative = inhibition) at 10uM” value was -3.73%.
The result for `O=C(NC1CCS(=O)(=O)C1)Oc1ccc(Cl)cc1` (stereo not shown) reads 1.73%.
Then `COc1ccccc1-n1cnc2cc(NS(=O)(=O)c3ccc(Br)cc3)ccc21`, with -3.3%.
As for `COc1ccc(Nc2ncnc3sc(C)cc23)cc1.Cl`, the “hERG current change (%, negative = inhibition) at 10uM” value worked out at 2.42%.
Consider `Cc1ccc(C(=O)N/C(=C\c2ccco2)C(=O)N2CCSCC2)cc1C`, for which the “hERG current change (%, negative = inhibition) at 10uM” value was -28.3%.
Then `CCCC(=O)Nc1cc2c(cc1C(C)=O)OCCO2`, with 8.37%.
Regarding `N#C/C(=C\c1ccc(-c2ccccc2[N+](=O)[O-])o1)C(=O)N1CCOCC1`, the “hERG current change (%, negative = inhibition) at 10uM” value is listed as -33.4%.
Then `COc1cccc(C2Nc3ccc4ccccc4c3C3=C2C(=O)CC(C)(C)C3)c1OCC(=O)O` (stereo not shown), with 20.6%.
For the compound `COc1ccc(C(=O)/C(=C/N(C)C)S(=O)(=O)c2ccccc2)cc1`, the “hERG current change (%, negative = inhibition) at 10uM” value is on record as 10.8%.
The result for `O=C(CCN1C(=O)/C(=C/C=C/c2ccccc2)SC1=S)Nc1cccnc1` reads 16.7%.
Then `COc1ccc(NC(=O)CN(C)C(=O)c2cc3c(s2)CCCCC3)cc1`, with -1.48%.
Then `CCOC(=O)c1sc(NC(=O)CSc2nc3c(cc2C#N)CCCCCC3)c(C#N)c1C`, with -3.02%; and `COc1ccc([C@H]2[C@H]3C=CC[C@@H](C)[C@@H]3C(=O)N2Cc2ccccc2)cc1Cl`, with 8.83%; and `Cc1[nH]c(=O)[nH]c(=O)c1S(=O)(=O)Nc1ccc(Oc2ccccc2)cc1`, with 4.18%.
For `Cc1cc(C)c2cc(C(=O)Nc3ccc4c(c3)OCO4)[nH]c2c1`, the “hERG current change (%, negative = inhibition) at 10uM” value was 16.2%.
On to `C/C(=N\NC(=O)CCc1ccc(S(=O)(=O)N2CCOCC2)cc1)c1ccc(OC(F)F)cc1`, for which the “hERG current change (%, negative = inhibition) at 10uM” value is listed as 6.63%.
For `O=C(N=Nc1c(O)n(C2OC(=O)c3ccccc32)c2ccccc12)c1ccc(O)cc1` (stereo not shown), the “hERG current change (%, negative = inhibition) at 10uM” value is reported as -0.695%.
Then `CCN(CC)S(=O)(=O)c1csc(C(=O)NC2CCCCC2)c1`, with -8.22%; and `O=C(CN1CCC(NC(=O)c2ccccc2)CC1)NCc1ccccc1F`, with -20.6%; and `Cc1csc(SCC(=O)Nc2cc(S(=O)(=O)N3CCOCC3)ccc2N2CCOCC2)n1`, with -45.8%.
The result for `Cc1nc2ncnn2c(C)c1CCC(=O)Nc1csc(N)n1` reads -27.9%.
For `CCOc1ccc(-n2nc3c(=O)n(CCN4CCCCC4)nc(C)c3c2C)cc1`, the “hERG current change (%, negative = inhibition) at 10uM” value was -22.5%.
Then `OC1CCCN(Cc2ccccc2)C1` (stereo not shown), with -4.02%.
The result for `CN1CCN(c2ccccc2/C=N/NC(=O)c2cccnc2)CC1` reads 4.8%; that for `c1ccc(-c2nc(-c3cccnc3)cs2)cc1`, -0.218%.
The result for `O=C(Cc1ccccc1[N+](=O)[O-])NCc1ccc(Cl)cc1` reads 5.25%; that for `CC1Cn2c(nnc2-c2cccc(N)c2)S1` (stereo not shown), 9.25%.
In the case of `COc1ccc(C(=O)N=C2SC3CS(=O)(=O)CC3N2Cc2ccccc2)cc1OC` (stereo not shown), the “hERG current change (%, negative = inhibition) at 10uM” value is 13.3%.
Then `CSCCC(NC(=O)c1ccc(Br)cc1)C(=O)O` (stereo not shown), with 13.7%.
Then `Cc1ccc(NC(=S)NNC(=O)c2c([N+](=O)[O-])c(C)nn2C)cc1`, with 7.99%; and `COc1cc(C(=O)Nc2cc(C)ccn2)cc(OC)c1OC`, with 14.5%; and `COC(=O)Cc1c[nH]c2cccc(OCC(O)CN(Cc3ccccc3)C(C)C)c12.O=C(O)c1ccccc1O` (stereo not shown), with -63%.
